Values quoted from earlier work, collected in patent US20190054060A1 (priority 2016, published 2019).

Test system: influenza
Conditions: human, in vivo; cited from earlier work

CC[C@H]1OC(=O)[C@H](C)[C@@H](O[C@H]2C[C@@](C)(OC)[C@@H](O)[C@H](C)O2)[C@H](C)[C@@H](O[C@@H]2O[C@H](C)C[C@H](N(C)C)[C@H]2O)[C@](C)(OC)C[C@@H](C)C(=O)[C@H](C)[C@@H](O)[C@]1(C)O [Clarithromycin, clarithromycin]
effect on symptoms in pediatric influenza patients: hasten the resolution of symptoms
